Data taken from PubChem BioAssay AID2546 (National Center for Advancing Translational Sciences (NCATS), 2010).
About 11,000 (3.5%) of roughly 310,000 compounds were called active. The inconclusive results got no clear call from the source; some entries with a clear call stand among them for comparison. Calls come from the whole dose curve; as a rule, active = well fitted inhibition curve with a large enough effect; inconclusive = small, poorly fitted or top-dose-only effect, or effect the other way; inactive = flat fitted curve, though single readings scatter. Potencies of inconclusive entries are left out as doubtful fits.
% is set by controls: 0 for no effect and ±100 for the full control effect; potency is the fitted concentration of half-maximal effect; tags give direction and shape of the fitted curve.

Experiment: VP16 counterscreen qHTS for inhibitors of ROR gamma transcriptional activity;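 note: Gal4-VP16 expression switched on by copper sulfate through the metallothionein promoter; nearly all actives have a fitted effect of over 50% in size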
Conditions: Drosophila S2 Gal4-VP16 UAS-luciferase, luminescence, 20 h; activity, negative = inhibition: at 53.6 µM (top of the series)
In the case of Cc1ccc(/C=[N+](\[O-])c2ccc(N(C)C)cc2)c2nsnc12, the Potency is reported as inconclusive [inhibitor, partial curve, poor fit].
In the case of Cc1nc2ccc(NC(=O)CCS(=O)(=O)c3ccccc3)cc2s1, the Potency is reported as inconclusive [inhibitor, full curve, poor fit].
For Cc1nc2sccn2c(=O)c1S(=O)(=O)Nc1ccc(N2CCN(S(C)(=O)=O)CC2)cc1, the Potency was “inactive”.
With CC(C)CC(=O)N1CC(=O)Nc2ccc(F)cc2C1c1ccccc1 (configuration not stated) the Potency was “inactive”.
With COc1ccccc1NC(=O)NN1CCCCC1 the Potency was inconclusive [activator, single point].
For CC1=NC(=O)C(N=Nc2ccccc2)N1c1ccccc1 (configuration not stated), the Potency was inconclusive [activator, single point].
With Cc1ccc(/C(O)=C/C(=O)C(=O)NNC(=O)C(O)(c2ccccc2)c2ccccc2)cc1 the Potency was inconclusive [inhibitor, single point].
In the case of COc1ccc(CNc2ncnc3c2[nH]c2ccccc23)cc1, the Potency is reported as active: 6.31 µM.
With O=C(/C=C/c1ccco1)NC(=S)Nc1ccccc1N1CCOCC1 the Potency was active: 8.91 µM.
For Cc1ccccc1C(=O)NC(=S)NCc1ccccc1, the Potency was active: 7.08 µM.
For S=c1[nH]nc(Cc2cccs2)n1-c1ccccc1Cl, the Potency was inconclusive [inhibitor, single point].
In the case of O=C1c2cccc3cc([N+](=O)[O-])cc(c23)C(=O)N1CCN1CCCC1, the Potency is reported as inconclusive [inhibitor, partial curve].
In the case of Cc1ccc(-c2c(C(=O)N/N=C/c3ccoc3)nnn2-c2nonc2N)cc1, the Potency is reported as inconclusive [inhibitor, single point].
For COc1ccc(C(=O)Nc2nnc(SCC(=O)NCc3ccco3)s2)c(OC)c1, the Potency was active: 10 µM.
In the case of CCOC(=O)CCc1c(C)c(C#N)c2nc3ccccc3n2c1-n1ccnc1, the Potency is reported as inconclusive [inhibitor, single point].
For O=C(Nc1ccon1)c1ccc(Cl)c(S(=O)(=O)N2CCCCC2)c1, the Potency was active: 2.24 µM.
In the case of CC(c1ccccc1)n1c(-c2ccc(C(C)(C)C)cc2)n[nH]c1=S (configuration not stated), the Potency is reported as active: 7.08 µM.
In the case of CN(C)CCCn1c(SCC(=O)N2c3ccccc3Sc3ccccc32)nc2ccccc2c1=O, the Potency is reported as inconclusive [inhibitor, single point].
For CCC1CCCCN1S(=O)(=O)c1ccc(NC(=O)c2snnc2C)cc1 (configuration not stated), the Potency was “inactive”.
With Cc1ccc(S(=O)(=O)N(C)c2ccc(OCC(=O)Nc3nc4ccccc4s3)cc2)cc1 the Potency was inconclusive [inhibitor, single point].
With c1ccc(COCCCc2cnc[nH]2)cc1 the Potency was “inactive”.
For O=C(CN1C(=O)c2ccccc2S1(=O)=O)c1ccc2c(c1)OCCCO2, the Potency was active: 0.708 µM.
With O=C1C2ON(c3ccccc3)C(c3cccnc3)C2C(=O)N1c1ccccc1 (configuration not stated) the Potency was “inactive”.
In the case of Nc1ccc2oc(-c3ccccc3Cl)nc2c1, the Potency is reported as “inactive”.
With COc1ccc(/C(O)=C2/C(=O)C(=O)N(CCN3CCOCC3)C2c2ccccn2)cc1 (configuration not stated) the Potency was “inactive”.
In the case of Cc1cc([N+](=O)[O-])nn1CC(=O)N/N=C/c1ccccc1O, the Potency is reported as active: 7.08 µM.
In the case of O=S(=O)(NCc1ccco1)c1ccc2c(c1)Cc1ccccc1-2, the Potency is reported as active: 8.91 µM.
With Cc1nc2ccccc2nc1SCC(=O)c1ccccc1 the Potency was inconclusive [inhibitor, single point].
In the case of O=C(/C=C/c1ccccc1)Nc1ccc(N2CCCCC2)cc1, the Potency is reported as inconclusive [inhibitor, single point].
In the case of CC(C)c1ccc(NC(=S)Nc2cccc3ccccc23)cc1, the Potency is reported as active: 7.08 µM.
With c1c2c(cc3sc(N4CCOCC4)nc13)OCCO2 the Potency was active: 4.47 µM.
For Oc1ccc(/C=C/c2nc(-c3ccccc3O)n(-c3ccccc3)n2)cc1, the Potency was inconclusive [inhibitor, single point].
With CN(CC(=O)Nc1ccccc1Sc1ccccc1)Cc1nc2ccccc2c(=O)[nH]1 the Potency was active: 3.55 µM.
With Nc1nc(C(c2ccccc2)c2ccccc2)cs1 the Potency was “inactive”.
For O=C(/C=C/NNC(=O)c1ccccc1)c1ccccc1, the Potency was inconclusive [inhibitor, single point].
For O=[N+]([O-])c1ccc(NC(=S)NCc2ccncc2)cc1, the activity, negative = inhibition was inactive: 0.166% [at 10 µM].
For O=S(=O)(Nc1nc2ccccc2nc1N1CCc2ccccc2C1)c1ccc(Br)cc1, the Potency was inconclusive [inhibitor, partial curve].
For O=C(Cc1ccccc1)Nc1cccc(N2CCCC2)c1, the Potency was inconclusive [inhibitor, partial curve, poor fit].
For O=C(NCc1ccccc1)c1c[nH]c2cc3c(cc2c1=O)OCCO3, the Potency was inconclusive [activator, partial curve].
In the case of Cc1cc(=O)n(-c2ccc3ccccc3n2)[nH]1, the Potency is reported as inconclusive [inhibitor, single point].
In the case of O=C(Nc1cccnc1)c1ccc([N+](=O)[O-])o1, the Potency is reported as inconclusive [inhibitor, partial curve].
For Cc1cc(C)c(O)c(-c2n[nH]c3c2C(c2cccc(O)c2)N(Cc2ccco2)C3=O)c1 (configuration not stated), the Potency was inconclusive [inhibitor, single point].
For CC12CCC(=O)N1C(C(=O)Nc1nnc(SCc3ccccc3F)s1)CS2 (configuration not stated), the Potency was inconclusive [activator, full curve, poor fit].
In the case of COc1ccc(NC(=S)N(CCCN2CCCC2)Cc2cccs2)cc1, the Potency is reported as “inactive”.
In the case of CCN(CC)c1ccc(NC2=C(Cl)C(=O)c3ccccc3C2=O)cc1, the Potency is reported as active: 11.2 µM.
With CCOC(=O)N1CCN(c2cc(=O)n(C)c(=O)n2C)CC1 the Potency was inconclusive [activator, partial curve, poor fit].
For Cc1cc(C)cc(NC(=O)c2ccc(CSc3nnnn3C)cc2)c1, the Potency was “inactive”.
With C/C(=N/NC(=O)c1ccccn1)c1ccncc1 the Potency was “inactive”.
With CCCC(=O)N(CCN1CCOCC1)c1nc2c(C)cccc2s1 the Potency was “inactive”.
For CCN(Cc1cnn(C)c1)C(=O)c1ccc(OC2CCN(S(=O)(=O)N(C)C)CC2)cc1, the Potency was inconclusive [inhibitor, single point].
For CCOC(=O)C1CCN(S(=O)(=O)c2ccc(CC)cc2)CC1, the Potency was inconclusive [inhibitor, single point].
For COc1ccc(C(=O)Nc2ccccc2C(=O)Nc2cc(C)ccn2)cc1, the Potency was inconclusive [inhibitor, single point].
For CSc1ccc(S(=O)(=O)Nc2ccc(F)cc2)cc1, the Potency was “inactive”.
For Cc1ccc(CNC(=S)Nc2ccc(C)c([N+](=O)[O-])c2)cc1, the Potency was active: 3.55 µM.
With COc1ccc(OC)c(-c2csc(NC(=O)CSc3ccccc3)n2)c1 the Potency was inconclusive [inhibitor, single point].
With CC1CN(C(=O)C2CC2)C(C)CN1C(=O)C1CC1 (configuration not stated) the Potency was inconclusive [activator, single point].
For Cc1ccc(-n2nc3ccc(NC(=O)c4cccc([N+](=O)[O-])c4C)cc3n2)cc1, the Potency was inconclusive [inhibitor, single point].
With Cc1cccc(CNc2ccnc(-c3ccccc3C(F)(F)F)n2)c1 the Potency was “inactive”.
For O=C(/C=C/c1cccs1)Nc1scc(-c2ccccc2)c1C(=O)O, the Potency was active: 12.6 µM.
With Cc1cccc(-n2cnc(C(=O)N3CCN(C)CC3)c2)n1 the activity, negative = inhibition was inactive: -21.8% [at 10 µM].
For CC1CCN(c2ccc(C(=O)NCc3ccc4c(c3)OCO4)cc2[N+](=O)[O-])CC1, the Potency was “inactive”.
For Cc1ccc2c(CSc3nc4ccccc4c(=O)n3CCCO)cc(=O)oc2c1C, the Potency was “inactive”.
With CCOC(=O)Cn1c(=NC(=O)c2cc(-c3cccs3)nc3ccccc23)sc2cc(S(N)(=O)=O)ccc21 the Potency was active: 11.2 µM.
For O=C(NC(=S)Nc1ccc(S(=O)(=O)N2CCCC2)cc1)c1cccs1, the Potency was active: 12.6 µM.
In the case of Cc1cc(SCC(=O)OC/C(O)=C(\C#N)c2nc3ccccc3[nH]2)c(C)cc1Br, the Potency is reported as active: 17.8 µM.
With COC(=O)c1sc2ccccc2c1-n1cccc1C(=O)C(=O)Nc1ccc(OC)cc1 the Potency was “inactive”.
With O=C(Nc1ccc(F)c(Cl)c1)c1nsc(Cl)c1Cl the Potency was inconclusive [activator, partial curve].
With Nc1c(C(=O)O)sc2nc(-c3ccccc3)c3c(c12)CCCC3 the Potency was inconclusive [inhibitor, single point].
For Cc1cc(C)nc(SCc2ccc(C(=O)NNC(=O)Nc3cccc(Cl)c3)cc2)n1, the Potency was inconclusive [inhibitor, single point].
For COc1cccc(/C=C/C(=O)OCC(=O)Nc2cc(C(F)(F)F)ccc2Cl)c1, the Potency was “inactive”.
In the case of BrC(=C\c1ccccc1)/C=N/n1cnnc1, the Potency is reported as inconclusive [inhibitor, single point].
In the case of CCOC(=O)c1ccc(-c2ccc(CO)o2)cc1, the Potency is reported as inconclusive [inhibitor, single point].
In the case of CN(C)S(=O)(=O)c1ccc(Cl)c(C(=O)Nc2ccc(S(=O)(=O)N3CCOCC3)cc2)c1, the Potency is reported as “inactive”.
With O=C(N/N=C/C=C/c1ccccc1)C1CC1c1ccccc1 (configuration not stated) the Potency was inconclusive [inhibitor, single point].
In the case of CCc1cc2c(=O)c(-c3ccc4c(c3)OCCO4)coc2cc1OS(C)(=O)=O, the Potency is reported as “inactive”.
In the case of S=C(NCCN1CCOCC1)Nc1cccc2ccccc12, the Potency is reported as inconclusive [inhibitor, single point].
With O=C(C1=C(O)/C(=C/c2ccc(O)cc2)CCC1)C(F)(F)F the Potency was inconclusive [inhibitor, single point].
